± gives the uncertainty stated by the source. Some of the results follow. Phosphotyrosine is written y.

17 molecules from the supplement of paper PMC3694890 can be followed below.
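Further: phosphopeptide probes on the chip at 1–4 µM, lysate proteins bound in 20 mM Tris pH 7.0 buffer with 140 mM NaCl, 1% Triton X-100 and 5% glycerol.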

One assay addresses GRB2 (endogenous complexes from cell lysate), P62993. The experiment in a line: GRB2 complex binding differential signal (pY peptide minus Ala control peptide) (fluorescence intensity units); higher = stronger GRB2 complex binding. The following applies: MCF7. Here is the method: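 In situ synthesized µParaflo PepArray of 6-mer peptides, each starting with an N-terminal phosphotyrosine (lowercase 'y' = pY) followed by 5 native residues. Peptides are tethered to glass through a long linker. Chips were incubated overnight at 4°C with total cell lysate (1 mg in 1 mL) from MCF10A, MCF7, T47D or MDA-MB-231 cells. Bound endogenous GRB2-containing complexes were detected with rabbit anti-GRB2 and an Alexa647 secondary antibody. Signals are background-subtracted and averaged over replicate spots, then the matched Ala-substituted control peptide signal is subtracted (differential signal).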
For yVDPFT [EPHA4_596/A1], the “GRB2 complex binding differential signal” value turned out to be 1550 ± 670.
As for yEDPNQ [EPHA2_594/A1], the “GRB2 complex binding differential signal” value amounted to 5750 ± 1500.
For yVHRDL [EPHA2_735/A1], the “GRB2 complex binding differential signal” value was found to be 623 ± 350.
On the same count and under the same terms, the same measure for yTTSGG [EPHA2_772/A1]: 4390 ± 730; for ySLLGL [EPHA2_960/A1]: 16 ± 160.
On the same count and under the same terms, the same measure for yEEPGR [EPHA8_616/A1]: 6370 ± 1500; for yILHFH [EPHA1_930/A1]: -177 ± 280; for yGEVYV [ABL2_299/A1]: 160 ± 210.
On the same count and under the same terms, the same measure for yFSKSE [EPHA2_575/A1]: 1150 ± 2200.
For yEDPNR [EPHA7_614/A1], the “GRB2 complex binding differential signal” value worked out at 15200 ± 1100.
Turning to yTEIFM [EPHA5_982/A1], the “GRB2 complex binding differential signal” value worked out at 616 ± 1900.
With yVDPHT [EPHA3_596/A1], the “GRB2 complex binding differential signal” value was determined as 10100 ± 2100.
On to yPAPKC [ABL2_261/A1], for which the “GRB2 complex binding differential signal” value worked out at 1010 ± 320.
Turning to yRKFTS [EPHA2_791/A1], the “GRB2 complex binding differential signal” value is 666 ± 250.
ySSCDT [EPHA3_937/A1]: the “GRB2 complex binding differential signal” value worked out at 526 ± 800.
The same measure, in the same setting: the same measure for yTAIEK [EPHA2_930/A1]: 2720 ± 390; for yEDPNE [EPHB1_600/A1]: 2570 ± 470.

Staying with this assay, now noted: MCF10A.
Consider yVDPFT [EPHA4_596/A1], for which the “GRB2 complex binding differential signal” value was found to be 560 ± 240.
On the same count and under the same terms, the same measure for yEDPNQ [EPHA2_594/A1]: 4460 ± 1700; for yVHRDL [EPHA2_735/A1]: 373 ± 220; for yTTSGG [EPHA2_772/A1]: 4170 ± 920.
On the same count and under the same terms, the same measure for ySLLGL [EPHA2_960/A1]: 65.1 ± 170; for yEEPGR [EPHA8_616/A1]: 5300 ± 880.
The same measure, in the same setting: the same measure for yILHFH [EPHA1_930/A1]: -171 ± 600; for yGEVYV [ABL2_299/A1]: -91 ± 510; for yFSKSE [EPHA2_575/A1]: 310 ± 190.
For yEDPNR [EPHA7_614/A1], the “GRB2 complex binding differential signal” value amounted to 9760 ± 850.
Still for that read-out and setting: the same measure for yTEIFM [EPHA5_982/A1]: 674 ± 400; for yVDPHT [EPHA3_596/A1]: 5320 ± 1400.
On the same count and under the same terms, the same measure for yPAPKC [ABL2_261/A1]: 1560 ± 690.
Turning to yRKFTS [EPHA2_791/A1], the “GRB2 complex binding differential signal” value came to 405 ± 210.
For ySSCDT [EPHA3_937/A1], the “GRB2 complex binding differential signal” value turned out to be 115 ± 160.
With yTAIEK [EPHA2_930/A1], the “GRB2 complex binding differential signal” value was determined as 1800 ± 290.
Still for that read-out and setting: the same measure for yEDPNE [EPHB1_600/A1]: 2690 ± 580.

Still in this assay, the particulars now being: MDA-MB-231.
Consider yVDPFT [EPHA4_596/A1], for which the “GRB2 complex binding differential signal” value came to 1700 ± 340.
On the same count and under the same terms, the same measure for yEDPNQ [EPHA2_594/A1]: 2480 ± 500.
As for yVHRDL [EPHA2_735/A1], the “GRB2 complex binding differential signal” value worked out at 453 ± 290.
As to yTTSGG [EPHA2_772/A1], the “GRB2 complex binding differential signal” value was 1210 ± 290.
Same read-out and setting: the same measure for ySLLGL [EPHA2_960/A1]: 464 ± 510; for yEEPGR [EPHA8_616/A1]: 1530 ± 450.
The same measure, in the same setting: the same measure for yILHFH [EPHA1_930/A1]: 168 ± 400.
The same measure, in the same setting: the same measure for yGEVYV [ABL2_299/A1]: 600 ± 340.
For yFSKSE [EPHA2_575/A1], the “GRB2 complex binding differential signal” value stood at 909 ± 330.
Take yEDPNR [EPHA7_614/A1]: the “GRB2 complex binding differential signal” value came out at 2720 ± 400.
The same measure, in the same setting: the same measure for yTEIFM [EPHA5_982/A1]: 992 ± 420; for yVDPHT [EPHA3_596/A1]: 2920 ± 670; for yPAPKC [ABL2_261/A1]: 780 ± 390.
Still for that read-out and setting: the same measure for yRKFTS [EPHA2_791/A1]: 614 ± 320; for ySSCDT [EPHA3_937/A1]: 869 ± 310.
Still for that read-out and setting: the same measure for yTAIEK [EPHA2_930/A1]: 810 ± 600.
yEDPNE [EPHB1_600/A1]: the “GRB2 complex binding differential signal” value was 1850 ± 600.

The assay is the same for the next values; noted with them: T47D.
With yVDPFT [EPHA4_596/A1], the “GRB2 complex binding differential signal” value turned out to be 2550 ± 1400.
As for yEDPNQ [EPHA2_594/A1], the “GRB2 complex binding differential signal” value was 2220 ± 1100.
Same read-out and setting: the same measure for yVHRDL [EPHA2_735/A1]: 727 ± 1100; for yTTSGG [EPHA2_772/A1]: 2590 ± 1400.
Still for that read-out and setting: the same measure for ySLLGL [EPHA2_960/A1]: 868 ± 1100.
With yEEPGR [EPHA8_616/A1], the “GRB2 complex binding differential signal” value stood at 2130 ± 1800.
On the same count and under the same terms, the same measure for yILHFH [EPHA1_930/A1]: 126 ± 1500; for yGEVYV [ABL2_299/A1]: 302 ± 1200; for yFSKSE [EPHA2_575/A1]: 715 ± 1000.
Consider yEDPNR [EPHA7_614/A1], for which the “GRB2 complex binding differential signal” value stood at 1880 ± 2100.
On the same count and under the same terms, the same measure for yTEIFM [EPHA5_982/A1]: 675 ± 1400; for yVDPHT [EPHA3_596/A1]: 2830 ± 3700.
As to yPAPKC [ABL2_261/A1], the “GRB2 complex binding differential signal” value amounted to 830 ± 1100.
With yRKFTS [EPHA2_791/A1], the “GRB2 complex binding differential signal” value was found to be 1290 ± 1100.
As for ySSCDT [EPHA3_937/A1], the “GRB2 complex binding differential signal” value was found to be 772 ± 1300.
Still for that read-out and setting: the same measure for yTAIEK [EPHA2_930/A1]: 847 ± 1400; for yEDPNE [EPHB1_600/A1]: 606 ± 1400.
